Assay results: a collection of fitness landscapes (doi:10.1038/s41467-024-54723-y)
Over roughly 18,000 sequences, “TetR repression strength (sort-seq, GFP reporter)” has its median near 0.23; the highest 2% begin near 0.68. The list shows a part of the results.

Molecular target: TetR (class B, Tn10) (UniProt P04483)
Test: TetR repression strength (sort-seq, GFP reporter) (relative to tetO2 = 1); higher = stronger repression
Conditions: E. coli
Procedure, shortened: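 E. coli SIG10-MAX carried a low-copy plasmid library with eight randomized operator positions between a constitutive promoter and sfGFP, with TetR constitutively expressed. Cells grew 5 h at 37 °C in LB with 50 µg/mL chloramphenicol, then 10^6 cells were FACS-sorted into 13 fluorescence bins, each Illumina-sequenced. Repression strength is the top bin index plus one minus the read-weighted mean bin, divided by the wild-type operator value. Three independent transformations; variants with ≥30 reads in all replicates and CV ≤0.5 were averaged.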

Chain of UniProt P04483 (P04483 whole entry): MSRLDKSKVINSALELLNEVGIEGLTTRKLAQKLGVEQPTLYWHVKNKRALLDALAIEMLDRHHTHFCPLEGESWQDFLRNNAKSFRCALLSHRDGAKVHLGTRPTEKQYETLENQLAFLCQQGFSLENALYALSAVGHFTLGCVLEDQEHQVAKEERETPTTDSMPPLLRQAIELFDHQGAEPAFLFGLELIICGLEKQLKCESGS

In order of rising TetR repression strength:
1. TCCCGCTGAGTTGACGAGA  0.0238
2. TCCCACGAAGTACCGGAGA  0.0264
3. TCCCCGATAGTCGACGAGA  0.0424
4. TCCCATCAAGTTGACGAGA  0.0444
5. TCCCAAATAGTTGGGGAGA  0.0447
6. TCCCTGATAGTGGGTGAGA  0.0505
7. TCCCAGGCAGTACAGGAGA  0.0568
8. TCCCGTATAGTCTGTGAGA  0.0605
9. TCCCGGGCAGTGTGGGAGA  0.0627
10. TCCCGAACAGTATGTGAGA  0.0646
11. TCCCATGGAGTCCAGGAGA  0.0821
12. TCCCTAGAAGTGCCGGAGA  0.0889
13. TCCCTTAGAGTGTGGGAGA  0.0893
14. TCCCTAAAAGTACTTGAGA  0.104
15. TCCCGTTCAGTATGGGAGA  0.106
16. TCCCACACAGTAGTTGAGA  0.108
17. TCCCGGAAAGTCACAGAGA  0.108
18. TCCCGTCTAGTGGGTGAGA  0.111
19. TCCCTGCGAGTGGTGGAGA  0.112
20. TCCCTCGAAGTGGGCGAGA  0.116
21. TCCCCAAGAGTTGGTGAGA  0.116
22. TCCCGTTTAGTCCGGGAGA  0.119
23. TCCCACAAAGTGGAGGAGA  0.12
24. TCCCGGGTAGTTATAGAGA  0.121
25. TCCCCTCAAGTCGAGGAGA  0.125
26. TCCCTGATAGTATGTGAGA  0.125
27. TCCCCGCGAGTCGGCGAGA  0.126
28. TCCCGAGGAGTGCTCGAGA  0.126
29. TCCCTAGGAGTGATGGAGA  0.131
30. TCCCGCAGAGTGTGGGAGA  0.134
31. TCCCTTGTAGTCGAGGAGA  0.136
32. TCCCGTGCAGTACATGAGA  0.14
33. TCCCTGATAGTTAAGGAGA  0.142
34. TCCCAGGGAGTGAAGGAGA  0.142
35. TCCCCTTAAGTATGGGAGA  0.148
36. TCCCATCAAGTTCGTGAGA  0.148
37. TCCCAGTAAGTGTTCGAGA  0.149
38. TCCCCGCAAGTATGGGAGA  0.152
39. TCCCGTGGAGTCTGTGAGA  0.153
40. TCCCGAAGAGTAATGGAGA  0.153
41. TCCCAGAGAGTTATGGAGA  0.155
42. TCCCATCGAGTGGAGGAGA  0.155
43. TCCCCTCTAGTGTAAGAGA  0.155
44. TCCCGACAAGTAACGGAGA  0.162
45. TCCCATTGAGTGCGTGAGA  0.164
46. TCCCAACGAGTCTTTGAGA  0.167
47. TCCCGGGTAGTTCCTGAGA  0.168
48. TCCCGTGGAGTAGCAGAGA  0.169
49. TCCCGCGCAGTTGCGGAGA  0.17
50. TCCCTGCAAGTCTAGGAGA  0.171
51. TCCCGGTGAGTATTTGAGA  0.172
52. TCCCGATAAGTCGGGGAGA  0.172
53. TCCCTTAAAGTGGCGGAGA  0.172
54. TCCCACCGAGTGGAGGAGA  0.172
55. TCCCACTTAGTGGAGGAGA  0.174
56. TCCCCGTGAGTTTGTGAGA  0.175
57. TCCCAGTGAGTGCGTGAGA  0.175
58. TCCCAAGAAGTGGGCGAGA  0.176
59. TCCCTTACAGTGAGGGAGA  0.177
60. TCCCGTACAGTAAGGGAGA  0.18
61. TCCCTTAGAGTGGGAGAGA  0.18
62. TCCCGGGTAGTGACGGAGA  0.181
63. TCCCCGGAAGTGACGGAGA  0.183
64. TCCCGCTCAGTGGGAGAGA  0.184
65. TCCCCTAGAGTACAGGAGA  0.185
66. TCCCTGAAAGTCGTTGAGA  0.186
67. TCCCACACAGTGCTTGAGA  0.187
68. TCCCCGCAAGTAGCGGAGA  0.188
69. TCCCTGTGAGTTGGGGAGA  0.189
70. TCCCGCCGAGTCGGCGAGA  0.189
71. TCCCCTCGAGTTGAGGAGA  0.19
72. TCCCGACAAGTTGGCGAGA  0.19
73. TCCCCGAGAGTTGTGGAGA  0.19
74. TCCCAGCGAGTAGATGAGA  0.191
75. TCCCAAAGAGTTTCGGAGA  0.191
76. TCCCGCCAAGTAGGGGAGA  0.194
77. TCCCGACGAGTACAGGAGA  0.196
78. TCCCAGCTAGTGTAAGAGA  0.197
79. TCCCAGTTAGTTTATGAGA  0.198
80. TCCCAGAGAGTTTGGGAGA  0.202
81. TCCCTGAAAGTATACGAGA  0.205
82. TCCCAGGGAGTTCTCGAGA  0.205
83. TCCCGGGAAGTCGTTGAGA  0.207
84. TCCCATCGAGTGGGGGAGA  0.207
85. TCCCAGTTAGTATTGGAGA  0.207
86. TCCCGAGAAGTGTACGAGA  0.207
87. TCCCAGTGAGTATGGGAGA  0.207
88. TCCCGGGAAGTATATGAGA  0.207
89. TCCCATCAAGTAGCAGAGA  0.207
90. TCCCACAAAGTCGGGGAGA  0.207
91. TCCCGGATAGTGATGGAGA  0.208
92. TCCCTTATAGTAGCGGAGA  0.21
93. TCCCAGTGAGTGTTGGAGA  0.21
94. TCCCGAGCAGTGGACGAGA  0.213
95. TCCCCATGAGTCGTCGAGA  0.214
96. TCCCAGTCAGTAGTAGAGA  0.216
97. TCCCGCCTAGTGGTTGAGA  0.217
98. TCCCCGTCAGTTAAGGAGA  0.217
99. TCCCAACGAGTAGACGAGA  0.217
100. TCCCGGGTAGTCCTGGAGA  0.22
101. TCCCACGGAGTTACGGAGA  0.224
102. TCCCGTCAAGTCGTGGAGA  0.227
103. TCCCGGCGAGTTGTGGAGA  0.229
104. TCCCATCCAGTACCGGAGA  0.23
105. TCCCGTCGAGTTATTGAGA  0.231
106. TCCCGTGCAGTTGTGGAGA  0.231
107. TCCCGGCGAGTAAGAGAGA  0.232
108. TCCCTGTGAGTAAAGGAGA  0.232
109. TCCCACCAAGTGAGAGAGA  0.233
110. TCCCTGATAGTTTTTGAGA  0.233
111. TCCCTGGCAGTGGATGAGA  0.233
112. TCCCTTCTAGTGTAGGAGA  0.235
113. TCCCTCGGAGTTGGTGAGA  0.237
114. TCCCAGGCAGTGGTTGAGA  0.238
115. TCCCCTCGAGTGTGGGAGA  0.239
116. TCCCGGGGAGTTGGTGAGA  0.239
117. TCCCAGGAAGTCCTTGAGA  0.24
118. TCCCTAGGAGTACGGGAGA  0.241
119. TCCCGCTTAGTAAAGGAGA  0.243
120. TCCCATTTAGTTTAGGAGA  0.244
121. TCCCGTGTAGTACTCGAGA  0.244
122. TCCCGATTAGTGGGAGAGA  0.25
123. TCCCAAGTAGTATCCGAGA  0.252
124. TCCCAGAGAGTTACGGAGA  0.252
125. TCCCTCGAAGTATTCGAGA  0.252
126. TCCCTGATAGTGTACGAGA  0.254
127. TCCCATCCAGTATCGGAGA  0.255
128. TCCCGAGAAGTGGAAGAGA  0.257
129. TCCCTCCCAGTTGGAGAGA  0.26
130. TCCCATTTAGTGGCCGAGA  0.261
131. TCCCTACTAGTGCCGGAGA  0.263
132. TCCCTGACAGTTCGCGAGA  0.263
133. TCCCAATGAGTATTAGAGA  0.265
134. TCCCTAGCAGTGGTTGAGA  0.265
135. TCCCGGGAAGTGGCAGAGA  0.266
136. TCCCGGTCAGTTTAGGAGA  0.27
137. TCCCTAGTAGTCTTCGAGA  0.272
138. TCCCTAGTAGTGTTCGAGA  0.273
139. TCCCTAGCAGTTGCAGAGA  0.275
140. TCCCTGTTAGTTTCTGAGA  0.275
141. TCCCGGTCAGTCGAAGAGA  0.278
142. TCCCGGTCAGTCTTGGAGA  0.281
143. TCCCTCTAAGTGTTAGAGA  0.282
144. TCCCAGGGAGTCACGGAGA  0.284
145. TCCCATACAGTACAAGAGA  0.288
146. TCCCGGTCAGTGCGGGAGA  0.289
147. TCCCGAACAGTGTAAGAGA  0.292
148. TCCCTTCGAGTTTGTGAGA  0.293
149. TCCCGTGAAGTATGAGAGA  0.294
150. TCCCACATAGTTGTTGAGA  0.297
151. TCCCATCAAGTGACCGAGA  0.298
152. TCCCCGTCAGTGATTGAGA  0.3
153. TCCCACCTAGTGAGCGAGA  0.304
154. TCCCTGCCAGTGGCGGAGA  0.304
155. TCCCGCTGAGTTTTTGAGA  0.307
156. TCCCTACAAGTCATCGAGA  0.309
157. TCCCTAGTAGTCTGGGAGA  0.31
158. TCCCACACAGTATAGGAGA  0.311
159. TCCCGATCAGTTAGGGAGA  0.313
160. TCCCAATTAGTGACTGAGA  0.316
161. TCCCTAGCAGTGTTCGAGA  0.319
162. TCCCGGATAGTTAGCGAGA  0.326
163. TCCCCTCGAGTGGGTGAGA  0.329
164. TCCCGTGCAGTTGAGGAGA  0.33
165. TCCCCGGGAGTCCGGGAGA  0.332
166. TCCCGTCCAGTCTGCGAGA  0.337
167. TCCCACTAAGTTGGTGAGA  0.339
168. TCCCTTAAAGTGTGTGAGA  0.344
169. TCCCGGACAGTAAAGGAGA  0.345
170. TCCCAGGTAGTGTGGGAGA  0.345
171. TCCCGCCGAGTTGCGGAGA  0.372
172. TCCCATGCAGTTCTGGAGA  0.375
173. TCCCTTTCAGTGTTTGAGA  0.382
174. TCCCGATAAGTGGGAGAGA  0.389
175. TCCCGATAAGTGCAGGAGA  0.393
176. TCCCCTCTAGTACACGAGA  0.398
177. TCCCCAACAGTTTGAGAGA  0.415
178. TCCCGCGGAGTCACTGAGA  0.415
179. TCCCTTTTAGTTCAGGAGA  0.417
180. TCCCACATAGTCGCCGAGA  0.421
181. TCCCTATGAGTGAACGAGA  0.424
182. TCCCGTTGAGTGCGGGAGA  0.441
183. TCCCTTTCAGTTAAAGAGA  0.442
184. TCCCGTTCAGTGCTCGAGA  0.442
185. TCCCTATGAGTGCTAGAGA  0.452
186. TCCCACCTAGTATATGAGA  0.466
187. TCCCTATCAGTGCCTGAGA  0.467
188. TCCCACTGAGTGAGAGAGA  0.473
189. TCCCGTCTAGTCATCGAGA  0.488
190. TCCCAGTCAGTAGGGGAGA  0.497
191. TCCCCAGCAGTCCTCGAGA  0.504
192. TCCCTAAGAGTGGTTGAGA  0.508
193. TCCCCGGCAGTTTACGAGA  0.523
194. TCCCTATCAGTAACAGAGA  0.539
195. TCCCTCCCAGTGATAGAGA  0.561
196. TCCCGGTAAGTGTTAGAGA  0.561
197. TCCCAAAAAGTTCGGGAGA  0.566
198. TCCCTTTTAGTGCACGAGA  0.567
199. TCCCGTGTAGTCAAGGAGA  0.579
200. TCCCCCAGAGTAACCGAGA  0.622
201. TCCCTATCAGTGGATGAGA  0.64
202. TCCCCAAAAGTCTTGGAGA  0.681
203. TCCCAGCAAGTTATGGAGA  0.701
204. TCCCTTTGAGTAAGTGAGA  1.15
